Test results published in publication PMC5700166.
The list shows a part of the results, in another mix than the full data. The list includes weakly bound sequences.

The sequences below were run against T1, GST-Ap-NF-kB RHD (UniProt A0A913YAJ5) (assay: protein-binding microarray (PBM)). Settings: PBM: ~300 nM protein, 6 mM HEPES pH 7.8, 80 mM KCl, 0.5 mM EDTA, 0.5 mM EGTA, 6% glycerol, 35 ng/ul poly-dIdC, 1% milk, 1 h, room temperature; Ap Aiptasia and Nv Nematostella (sea anemones) / Co Capsaspora / Aq Amphimedon (sponge) / Dm Drosophila / Hu human; RHD is the Rel homology domain; high values mean tight binding; most listed sequences are background and not binding sites; double strand, one strand shown.
T1 sequence: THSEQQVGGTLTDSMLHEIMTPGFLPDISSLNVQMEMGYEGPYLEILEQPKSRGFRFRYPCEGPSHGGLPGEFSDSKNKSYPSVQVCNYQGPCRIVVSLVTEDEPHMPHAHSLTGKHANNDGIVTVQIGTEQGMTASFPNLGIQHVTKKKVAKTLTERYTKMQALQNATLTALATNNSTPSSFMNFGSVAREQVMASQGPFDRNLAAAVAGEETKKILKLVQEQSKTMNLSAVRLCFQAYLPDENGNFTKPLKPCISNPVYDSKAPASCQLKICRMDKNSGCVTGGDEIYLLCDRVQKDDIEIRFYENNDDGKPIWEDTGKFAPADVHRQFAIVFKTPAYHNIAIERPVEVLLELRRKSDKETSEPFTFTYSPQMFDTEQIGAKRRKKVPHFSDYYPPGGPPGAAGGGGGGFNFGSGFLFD
Sequence “CCGATTAACATCACATTCCCCCCTGATGTTAATCGGGTCTTGATTCGCTTGACGCTGCTG” has a binding signal of 6.91 z-score. With “CCGATTAACATCAAGGGGGGGTGTGATGTTAATCGGGTCTTGATTCGCTTGACGCTGCTG” the binding signal was 4.34 z-score. In the case of “CCGATTAACATCAGAAATGGGAATGATGTTAATCGGGTCTTGATTCGCTTGACGCTGCTG”, the binding signal is reported as 0.35 z-score. “CCGATTAACATCAAAACTCCCCATGATGTTAATCGGGTCTTGATTCGCTTGACGCTGCTG” gave a binding signal of 7.13 z-score. “CCGATTAACATCAGGGGGAAATATGATGTTAATCGGGTCTTGATTCGCTTGACGCTGCTG” showed a binding signal of 7.3 z-score. “CCGATTAACATCAGGGAATTCACTGATGTTAATCGGGTCTTGATTCGCTTGACGCTGCTG” was tested, and the binding signal was 4.74 z-score. “CCGATTAACATCAAAAAGCCCCGTGATGTTAATCGGGTCTTGATTCGCTTGACGCTGCTG” gave a binding signal of 6.52 z-score. Work on “CCGATTAACATCAAGGGGAAAACTGATGTTAATCGGGTCTTGATTCGCTTGACGCTGCTG” yielded a binding signal of 7.51 z-score. For “CCGATTAACATCAGGAGATACCCTGATGTTAATCGGGTCTTGATTCGCTTGACGCTGCTG”, the binding signal was 3.04 z-score. Sequence “CCGATTAACATCACCCATGGGAATGATGTTAATCGGGTCTTGATTCGCTTGACGCTGCTG” has a binding signal of 0.782 z-score. Sequence “CCGATTAACATCAAAACTTCCCATGATGTTAATCGGGTCTTGATTCGCTTGACGCTGCTG” has a binding signal of 3.04 z-score. Work on “CCGATTAACATCAAGCCTGTCCCTGATGTTAATCGGGTCTTGATTCGCTTGACGCTGCTG” yielded a binding signal of 2.01 z-score. “CCGATTAACATCAATCCCCACATTGATGTTAATCGGGTCTTGATTCGCTTGACGCTGCTG” was tested, and the binding signal was 3.58 z-score. For “CCGATTAACATCACCCCTTCCCCTGATGTTAATCGGGTCTTGATTCGCTTGACGCTGCTG”, the binding signal was 4.7 z-score.
